The target of assay [1] is human CHD1L R319Q variant, 3×Flag-tagged (human) (UniProt Q86WJ1). The experiment in a line: co-IP; lysates of 293FT cells co-transfected with flag-tagged CHD1L (WT or mutant) and HA-tagged PARP1; magnetic beads with anti-FLAG or anti-HA antibody, overnight at 4 °C; mouse IgG beads as negative control; western blot.
For assay [2], the target named is human CHD1L R611* truncated variant, 3×Flag-tagged (human) (UniProt Q86WJ1). Described as above.
The target of assay [3] is human CHD1L wild-type, 3×Flag-tagged (human) (UniProt Q86WJ1). Described as above.
The target of assay [4] is human CHD1L R319Q variant, 3×Flag-tagged (human) (UniProt Q86WJ1). The experiment in a line: co-IP; lysates of 293FT cells transfected with flag-tagged CHD1L (WT or mutant) without PARP1 construct; endogenous PARP1; magnetic beads with anti-FLAG or anti-PARP1 antibody, overnight at 4 °C; western blot.
Assay [5] has as its target human CHD1L R611* truncated variant, 3×Flag-tagged (human) (UniProt Q86WJ1). The description is as above.
For assay [6], the target named is human CHD1L wild-type, 3×Flag-tagged (human) (UniProt Q86WJ1). Described as above.

The chains behind the UniProt entries cited, without tags or fusion partners. Where a name states a change or a piece, a line headed by the entry shows the natural chain unless it says otherwise. A line that says so, or that is headed by a name, gives the form on record, which may keep a tag or linker. Residues count along the entry.
UniProt Q86WJ1: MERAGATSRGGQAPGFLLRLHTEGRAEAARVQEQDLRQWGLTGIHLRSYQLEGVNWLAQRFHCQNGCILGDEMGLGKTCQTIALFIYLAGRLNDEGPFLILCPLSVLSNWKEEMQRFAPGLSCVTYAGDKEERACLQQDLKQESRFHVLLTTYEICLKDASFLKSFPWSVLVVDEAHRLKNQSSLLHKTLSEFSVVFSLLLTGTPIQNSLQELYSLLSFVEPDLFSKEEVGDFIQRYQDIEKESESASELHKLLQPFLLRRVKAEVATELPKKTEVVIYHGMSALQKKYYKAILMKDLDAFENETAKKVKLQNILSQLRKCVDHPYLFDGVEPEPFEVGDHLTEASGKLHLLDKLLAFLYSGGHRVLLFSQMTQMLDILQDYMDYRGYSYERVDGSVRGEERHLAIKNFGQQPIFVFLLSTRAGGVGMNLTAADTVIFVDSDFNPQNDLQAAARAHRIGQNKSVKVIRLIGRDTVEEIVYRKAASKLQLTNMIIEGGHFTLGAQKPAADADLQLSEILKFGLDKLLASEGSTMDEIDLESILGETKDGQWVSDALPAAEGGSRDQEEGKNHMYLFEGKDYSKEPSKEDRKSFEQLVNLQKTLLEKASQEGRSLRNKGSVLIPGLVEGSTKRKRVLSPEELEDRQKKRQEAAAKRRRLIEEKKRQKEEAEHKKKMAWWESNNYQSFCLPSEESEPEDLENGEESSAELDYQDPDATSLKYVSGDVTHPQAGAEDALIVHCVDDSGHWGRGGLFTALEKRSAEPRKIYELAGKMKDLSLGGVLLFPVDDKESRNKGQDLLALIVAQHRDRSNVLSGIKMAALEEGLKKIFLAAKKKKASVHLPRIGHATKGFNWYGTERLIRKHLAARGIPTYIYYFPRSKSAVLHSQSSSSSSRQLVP
human CHD1L R611* truncated variant, 3×Flag-tagged: residues 1-610 of Q86WJ1
UniProt P09874: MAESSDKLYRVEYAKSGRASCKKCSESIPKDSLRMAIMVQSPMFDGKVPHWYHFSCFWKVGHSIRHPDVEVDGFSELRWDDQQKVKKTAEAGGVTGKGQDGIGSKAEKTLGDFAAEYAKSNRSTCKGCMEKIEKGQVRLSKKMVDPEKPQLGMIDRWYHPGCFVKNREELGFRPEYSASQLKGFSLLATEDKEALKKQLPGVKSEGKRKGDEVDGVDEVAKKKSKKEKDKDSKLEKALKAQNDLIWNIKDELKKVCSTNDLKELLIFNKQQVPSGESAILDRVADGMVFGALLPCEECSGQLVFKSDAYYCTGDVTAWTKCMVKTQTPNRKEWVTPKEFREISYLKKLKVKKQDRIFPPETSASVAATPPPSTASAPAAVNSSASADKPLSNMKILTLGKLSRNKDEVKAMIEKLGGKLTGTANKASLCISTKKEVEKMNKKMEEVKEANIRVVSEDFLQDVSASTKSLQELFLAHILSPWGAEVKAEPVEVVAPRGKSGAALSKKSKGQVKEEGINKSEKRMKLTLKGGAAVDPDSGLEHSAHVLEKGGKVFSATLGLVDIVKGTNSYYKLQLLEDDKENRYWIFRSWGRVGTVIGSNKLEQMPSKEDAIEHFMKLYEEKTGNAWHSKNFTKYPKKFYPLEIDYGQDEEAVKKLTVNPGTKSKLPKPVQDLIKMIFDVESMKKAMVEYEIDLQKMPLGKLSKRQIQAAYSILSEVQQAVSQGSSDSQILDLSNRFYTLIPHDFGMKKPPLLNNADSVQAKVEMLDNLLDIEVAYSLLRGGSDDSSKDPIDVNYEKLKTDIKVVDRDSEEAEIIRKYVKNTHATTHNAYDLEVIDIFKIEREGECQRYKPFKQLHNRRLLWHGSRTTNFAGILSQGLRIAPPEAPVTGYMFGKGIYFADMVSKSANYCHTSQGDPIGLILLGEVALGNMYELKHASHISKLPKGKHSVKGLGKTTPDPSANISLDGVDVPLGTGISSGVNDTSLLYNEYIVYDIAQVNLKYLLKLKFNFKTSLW

These are yes or no findings as the source states them, for the method shown. Binding seen in cells or lysates may run through a third protein. Some entries that bind do so weakly or less than the wild type.

For the substance “human PARP1, HA-tagged (from UniProt P09874 1-1014)”, the binding entry is on record as “binds” in assay [1], “no binding” in assay [2] and “binds” in assay [3].
For “endogenous PARP1 protein (from UniProt P09874 1-1014)”, the results for the binding result in assay [4], in assay [5] and in assay [6] were “binds”, “no binding” and “binds”, respectively.
